{"source": "the supplement of paper PMC11417369", "note": "Some of the results follow."}
{"system": "PfAP2-HC AP2 domain (GST-tagged)", "experiment": "gcPBM binding intensity (ln(normalized median fluorescence intensity)); higher = stronger DNA binding", "outline": "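Probes on an Agilent 4 × 180k array were primer-extended, double-stranded and 36 bp long, taken from intergenic genomic regions, with negative controls added. GST-tagged P. falciparum DNA-binding domains from E. coli, about 25 μg on average, were applied to the array for 1 h in 1× PBS containing 1% milk, 0.2 mg/ml BSA, 0.5% salmon testes DNA and 0.03% Triton X-100. Binding intensity, obtained after Alexa488 anti-GST antibody detection and a 488 nm scan, is the highest Masliner-normalised natural-log median intensity across replicate spots of either probe orientation.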"}
{"sequence": "TTTGTTCATATGAAATGTACAAAAAAAAAAAAAAAA [XGTACX_site8849]", "gcPBM binding intensity (ln)": 9.06}
{"sequence": "ATGTAGAAGTAATGCACACATATGTATTTATATATA [CACACA_site5391]", "gcPBM binding intensity (ln)": 10.2}
{"sequence": "TCTTTTTTTACTTTCTTTTTTTTTTTTTTTTTTTTT [XGTACX_negctrl_site610]", "gcPBM binding intensity (ln)": 9.3}
{"sequence": "TGTTAATTAAAACATCATTAATATTATTAAAAATAC [XGTACX_negctrl_site509]", "gcPBM binding intensity (ln)": 9.36}
{"sequence": "AATTGATACCTTACATGTACATAATATATATAAATA [XGTACX_site321]", "gcPBM binding intensity (ln)": 9.67}
{"sequence": "TTTTTACATACAAATTAACACACATATAGAAAAGAG [CACACA_site8570]", "gcPBM binding intensity (ln)": 9.77}
{"sequence": "GAACCATTTTTTGGTATACACACGTAATTATATAAT [CACACA_site8552]", "gcPBM binding intensity (ln)": 9.7}
{"sequence": "CCTTTATAAAAAAGTAGTACACAATGAATTTATAAT [XGTACX_site5523]", "gcPBM binding intensity (ln)": 9.39}
{"sequence": "CAATACTAATTGTATACACACAAAAATATACCATAT [CACACA_site3326]", "gcPBM binding intensity (ln)": 10}
{"sequence": "TATATTTATAGACACACACACAAAAAAAAAAAAAAA [CACACA_site6818]", "gcPBM binding intensity (ln)": 10.8}
{"sequence": "TAATTTTTTTTATTATGTACTTAATAAATGTTAATT [XGTACX_site365]", "gcPBM binding intensity (ln)": 9.48}
{"sequence": "AAATTATTTATATGTTGTACTTATCCATTTTTATAA [XGTACX_site7441]", "gcPBM binding intensity (ln)": 9.68}
{"sequence": "TTAGCTACACGCTAATGTACACAAATACAAAGAAAA [XGTACX_site3993]", "gcPBM binding intensity (ln)": 9.56}
{"sequence": "TATACGCATATATAAACACACAAAAAAAAAAAAAAA [CACACA_site2026]", "gcPBM binding intensity (ln)": 9.43}
{"sequence": "TATATTAATTTATATCAACACACAAAATCAATATAC [CACACA_site8518]", "gcPBM binding intensity (ln)": 9.91}
{"sequence": "AAGAATGTTATATTATGATGCTGTCTTTTTTTAAGA [CACACA_negctrl_site251]", "gcPBM binding intensity (ln)": 9.4}
{"sequence": "AATAAACATATATGTACACACATATACATATATATA [CACACA_site2848]", "gcPBM binding intensity (ln)": 9.83}
{"sequence": "TTTTTTTTTAATTATGCATGTAAATTATATATTATA [TGCATGCA_site335]", "gcPBM binding intensity (ln)": 9.55}
{"sequence": "TATTTATAATTAAATACACACATATATTATATATTT [CACACA_site616]", "gcPBM binding intensity (ln)": 9.79}
{"sequence": "CATATTTGTATATGCACACATAAATTTTTCCATTTC [CACACA_site3467]", "gcPBM binding intensity (ln)": 9.81}
{"sequence": "AAATTTTTAAACAGCACACATAAATATAATATATAT [CACACA_site2208]", "gcPBM binding intensity (ln)": 10}
{"sequence": "AAACAAAAAAACTACAGTACTTTTTTCAATTCCCCT [XGTACX_site7541]", "gcPBM binding intensity (ln)": 9.57}
{"sequence": "TATATGTTTACTTAATGTACTTACATTTTTATAACA [XGTACX_site1100]", "gcPBM binding intensity (ln)": 9.69}
{"sequence": "AAAATTAACCGTAACACACACACATATATATATATA [CACACA_site3964]", "gcPBM binding intensity (ln)": 10.8}
{"sequence": "ACATAAATAATAAAAACACACATATGTACTTATATA [CACACA_site8581]", "gcPBM binding intensity (ln)": 9.95}
{"sequence": "TTATTAATTTTTATTTTTAAATCACAAAAGATATAA [CACACA_negctrl_site787]", "gcPBM binding intensity (ln)": 9.2}
{"sequence": "TTACATTTTTGAAATAGATACATACACGTGTATGTA [CACACA_negctrl_site1311]", "gcPBM binding intensity (ln)": 9.47}
{"sequence": "GACATTAAAATGAAATATACATATATATGTATATAT [TGCATGCA_negctrl_site601]", "gcPBM binding intensity (ln)": 9.68}
{"sequence": "ATATATATATATATTACACACATGTGCAATTAAAAT [CACACA_site1778]", "gcPBM binding intensity (ln)": 9.97}
{"sequence": "AATATAAGAATATATACACACATAAATACATACATA [CACACA_site4128]", "gcPBM binding intensity (ln)": 10}
{"sequence": "AATTGAAAAATCAGCACACACACAAATACATACATA [CACACA_site3232]", "gcPBM binding intensity (ln)": 10.6}
{"sequence": "TGGTAATACACATACACACACACATACACATATATA [CACACA_site7312]", "gcPBM binding intensity (ln)": 11.4}
{"sequence": "GCTATATATTACAATCGTACAATATATATATATATA [XGTACX_site6730]", "gcPBM binding intensity (ln)": 9.7}
{"sequence": "AATACTTTTTATTTAGTGCATAAGAAAATATAAATC [GTGCAC_site9875]", "gcPBM binding intensity (ln)": 9.57}
{"sequence": "AAAAAAAAAAATTCGGTGCAATGTAATTAATGTAAA [GTGCAC_site9588]", "gcPBM binding intensity (ln)": 9.7}
{"sequence": "TATAAAATATGTATGAGGAATAAAATTAAAAAAAAA [TGCATGCA_negctrl_site178]", "gcPBM binding intensity (ln)": 9.64}
{"sequence": "TTTTTAAAACCTTACATACACACAAATATATATATA [CACACA_site678]", "gcPBM binding intensity (ln)": 9.74}
{"sequence": "TGTTCCGAAGGTTGTACACACATAGAAATATACATA [CACACA_site3874]", "gcPBM binding intensity (ln)": 9.93}
{"sequence": "TGAATTCATAGCAGTTGTACATTGCATGAAGAAACG [XGTACX_site3312]", "gcPBM binding intensity (ln)": 9.66}
{"sequence": "TCTTGTATACGGCATGCATGTTAGCACATACGGACA [TGCATGCA_site146]", "gcPBM binding intensity (ln)": 9.57}
{"sequence": "TTTTTTTGCGCGGGAAGAATAAAATTTATAGAATAT [TGCATGCA_negctrl_site306]", "gcPBM binding intensity (ln)": 9.29}
{"sequence": "AATTTACACGTACGTGTACACACAAAAATATGTTTT [CACACA_site8242]", "gcPBM binding intensity (ln)": 9.92}
{"sequence": "CAGACATTAATAAGTAGTACACAATAATTGACTAGG [XGTACX_site854]", "gcPBM binding intensity (ln)": 9.78}
{"sequence": "TTATATGTTTCTTCACGTACGTATAAAAATGAACTT [XGTACX_site1764]", "gcPBM binding intensity (ln)": 9.5}
{"sequence": "TATTTTTATAAAAACTGTACATAATAAATAAAAATA [XGTACX_site4743]", "gcPBM binding intensity (ln)": 9.5}
{"sequence": "AATCAAAGTAATTTAACACACAATTTTAATACTGTT [CACACA_site7169]", "gcPBM binding intensity (ln)": 9.78}
{"sequence": "TATCATGTGCGTGCGTGTACTTAACACACATAATAT [XGTACX_site2404]", "gcPBM binding intensity (ln)": 9.84}
{"sequence": "TTGTTCATTATGCACAGTACATAAAAAGTAAAAAAA [XGTACX_site2403]", "gcPBM binding intensity (ln)": 9.68}
{"sequence": "ATATTGACAAATATTACACACATATATATATATATA [CACACA_site4079]", "gcPBM binding intensity (ln)": 9.71}
{"sequence": "TCATTTATTTTAAGGTGTACCGTTTAAAATCACAAA [XGTACX_site3243]", "gcPBM binding intensity (ln)": 9.18}
{"sequence": "AATGTTTAATATAACGCATGCCTTAATATAGAATGC [TGCATGCA_site463]", "gcPBM binding intensity (ln)": 9.59}
{"sequence": "TTTCTAATTTATATCACACACATATATAAATAGTAA [CACACA_site6156]", "gcPBM binding intensity (ln)": 9.72}
{"sequence": "ATATATATAATTTAAAGTACATATTTAAGAATGAAA [XGTACX_site2238]", "gcPBM binding intensity (ln)": 9.62}
{"sequence": "AGTTTTATGTAGTGTTGTACTTTATACAAATATATA [XGTACX_site990]", "gcPBM binding intensity (ln)": 9.7}
{"sequence": "TACAAAAATGTAGTCACACATATGTATACTTTTATG [CACACA_site5607]", "gcPBM binding intensity (ln)": 9.86}
{"sequence": "AGTAATAATATAATTTGTACATATATATATTATAAA [XGTACX_site7138]", "gcPBM binding intensity (ln)": 9.63}
